According to PubChem BioAssay (Tox21):
The source holds several records for some structures; these can differ, active in one and inactive in another. Calls of active or inactive are those of the source. A call without a number means that no potency is given here. Unless noted, calls follow the shape of the dose curve; as a rule, active = well fitted curve in the direction sought with a large enough effect in the repeat runs; inconclusive = weak or mixed curves; inactive = no such curve, though single readings can be large; an effect the other way counts as inactive or inconclusive.

Legend:
[1] = system: thyroid hormone receptor (rat, GH3 cells); assay: qHTS assay to identify small molecule agonists of the thyroid receptor (TR) signaling pathway (AID 743066; calls by dose curve); details: GH3.TRE-Luc cells, TR agonist luciferase, 24 h; activation: at 83.9 µM (top of the series) unless noted
[2] = qHTS RealTime-Glo MT Cell Viability Assay in HEK293 cells - 32 hour (AID 1224868); also: nearly all actives have a fitted effect of over 50% in size; also: potency is read from the fitted curve at half-maximal effect
Method in brief: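 Nonlytic real-time viability readout: viable cells convert prosubstrate to NanoLuc substrate, giving luminescence proportional to live cell number. HEK293, 600 cells/well, compound added after 5 h, continuous culture at 37 C.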

[3] = qHTS assay to identify small molecule agonists of the TGF-beta/Smad signaling pathway (AID 1346859; active = well fitted activation curve with a large enough effect in the signal ratio in the repeat runs, not every such curve was filed as active; inconclusive = weak or mixed curves; the % refers to the signal ratio)
Method in brief: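 Screening used HEK 293T SBE-bla cells at 4,000/well. Test agents: 5 hr, 37 C. Detection: FRET substrate, 2 hr RT, then excitation 405 nm with emissions at 460 and 530 nm.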

[4] = qHTS assay for small molecules that induce genotoxicity in human embryonic kidney cells expressing luciferase-tagged ATAD5 - cell viability (AID 651634; calls by dose curve; also: nearly all actives have a fitted effect of over 25% in size)
Method in brief: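 HEK293T cells carrying luciferase-tagged ATAD5, 2,000 cells/well, exposed to compound for 15.5 hr at 37C. Viability read as live-cell protease activity by CellTiter-Fluor fluorescence after 30 min at 37C.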

[5] = qHTS assay for small molecule activators of the heat shock response signaling pathway - cell viability counter screen (AID 743209); details: HSE-bla HeLa viability, CellTiter-Glo luminescence, 5 h; activity change, negative = cytotoxicity: at 62.6 µM (top of the series) unless noted; also: nearly all actives have a fitted effect of over 50% in size; also: potency is read from the fitted curve at half-maximal effect
Method in brief: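 HSE-bla HeLa cells plated overnight, then exposed to Tox21 compounds (23 nL in DMSO) for 5 h at 37 C. After the bla reporter read, CellTiter-Glo was added in the same wells and luminescence read after 30 min at room temperature.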

[6] = qHTS assay for small molecule agonists of the antioxidant response element (ARE) signaling pathway - cell viability counter screen (AID 743203; calls by dose curve; also: nearly all actives have a fitted effect of over 55% in size); details: ARE-bla HepG2 viability, CellTiter-Glo luminescence, 16 h; viability change, negative = cytotoxic: at 73.3 µM (top of the series)
Method in brief: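 ARE-bla HepG2 cells were plated, rested 5 h at 37C/5% CO2, then exposed to compounds in DMSO for 16 h. Viability was read as CellTiter-Glo luminescence after 30 min at room temperature, in the same wells as the ARE screen.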

[7] = target: Estrogen receptor (Homo sapiens) (UniProt P03372); assay: qHTS assay to identify small molecule antagonists of the estrogen receptor alpha (ER-alpha) signaling pathway using the BG1 cell line in the presence of 0.1 nM 17-beta-estradiol (AID 1259244); also: nearly all actives have a fitted effect of over 50% in size
Method in brief: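 VM7Luc4E2 cells (endogenous full-length ER-alpha, 4×ERE-luciferase), kept 5 days in phenol red-free, charcoal-stripped FBS medium; 4,000 cells/well. Compounds added with 0.1 nM (final) 17beta-estradiol, 22 hr at 37C; luminescence read with ONE-Glo after 30 min.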

[8] = target: Peroxisome proliferator-activated receptor delta (Homo sapiens) (UniProt Q03181); assay: qHTS assay to identify small molecule agonists of the peroxisome proliferator-activated receptor delta (PPARd) signaling pathway (AID 743212; calls by dose curve); details: HEK293H PPARd-UAS-bla, beta-lactamase FRET ratio, 17 h; activation: at 62.6 µM (top of the series) unless noted
Method in brief: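 GeneBLAzer PPARd UAS-bla HEK293H cells (beta-lactamase reporter under UAS control), plated and rested 5 h at 37 C, then exposed to compounds in DMSO at 37 C; LiveBLAzer B/G FRET substrate added, 2 h room temperature, fluorescence read.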

[9] = target: Estrogen receptor (Homo sapiens) (UniProt P03372); assay: qHTS assay to identify small molecule agonists of the estrogen receptor alpha (ER-alpha) signaling pathway (AID 743075; calls by dose curve;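 also: HEK293 GripTite cells with ER-alpha and UAS-driven beta-lactamase reporter; potency is read from the fitted curve at half-maximal effect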); details: HEK293 ER-alpha-UAS-bla, beta-lactamase FRET ratio, 18 h; activation: at 70.1 µM (top of the series)
[10] = qHTS assay to identify small molecule antagonists of the TGF-beta/Smad signaling pathway (AID 1346924; active = well fitted inhibition curve with a large enough effect in the signal ratio in the repeat runs, not every such curve was filed as active; inconclusive = weak or mixed curves; the % refers to the signal ratio); details: SBE-bla HEK293T, TGF-beta/Smad reporter, beta-lactamase ratio; activity, negative = inhibition: at 76.8 µM (top of the series) unless noted
Method in brief: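 SBE-bla HEK 293T cells were plated overnight, then received compound in DMSO plus TGF-beta1 (added as a 0.25 ng/mL solution) and were incubated 5 h at 37 C. Beta-lactamase reporter activity was read after 2 h at room temperature with LiveBLAzer B/G FRET substrate (ex 405, em 460/530 nm).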

[11] = target: Glucocorticoid receptor (Homo sapiens) (UniProt P04150); assay: qHTS assay to identify small molecule agonists of the glucocorticoid receptor (GR) signaling pathway (AID 720691; active = well fitted activation curve with a large enough effect in the signal ratio in the repeat runs, not every such curve was filed as active; inconclusive = weak or mixed curves, or effect the other way; inactive = no such curve, though single readings can be large or run the other way; the % refers to the signal ratio; also: potency is read from the fitted curve at half-maximal effect); details: GR-bla HeLa, beta-lactamase reporter ratio, 18 h; activation: at 62.4 µM (top of the series) unless noted
Method in brief: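 GR-bla HeLa cells carrying a GRE-driven beta-lactamase reporter, exposed to compounds for 18 h at 37 C. Reporter activation read as fluorescence after 2 h with LiveBLAzer B/G FRET substrate at room temperature.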

[12] = qHTS assay to identify small molecule agonists of the sonic hedgehog signaling (Shh) pathway - cell viability counter screen (AID 1259366); also: nearly all actives have a fitted effect of over 50% in size
Method in brief: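 In quantitative high-throughput format, 3T3 Gli1-Luc cells were exposed to compounds for 24hr and multiplexed for viability using CellTiter-Fluor, incubated 1hr at 37C before the fluorescence read.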

[13] = target: Nuclear receptor subfamily 1 group I member 2 (Rattus norvegicus) (UniProt Q9R1A7); assay: Rat pregnane X receptor (rPXR) activation by small molecules, qHTS assay (AID 1346983); details: rPXR luciferase reporter cells, One-Glo luminescence, 24 h; max activation: stronger effect = higher value; also: potency is read from the fitted curve at half-maximal effect; nearly all actives have a fitted effect of over 20% in size
Method in brief: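 Cell-based rPXR luciferase reporter assay, 2,000 cells per well, rested 5hr at 37 C before compound addition in DMSO, then 24 hr at 37 C. One-Glo reagent was added and luminescence read after 30 min at room temperature.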

[14] = qHTS assay to identify small molecule antagonists of the glucocorticoid receptor (GR) signaling pathway - cell viability counter screen (AID 720693); details: GR-bla HeLa viability, CellTiter-Glo luminescence, 18 h, with 5 nM dexamethasone present; viability change, negative = cytotoxic: at 58.5 µM (top of the series); also: potency is read from the fitted curve at half-maximal effect; nearly all actives have a fitted effect of over 55% in size
Tags tell the direction and shape of the fitted curve or compound fluorescence and quenching.

UniProt P03372, sequence (P03372 whole entry, looked up): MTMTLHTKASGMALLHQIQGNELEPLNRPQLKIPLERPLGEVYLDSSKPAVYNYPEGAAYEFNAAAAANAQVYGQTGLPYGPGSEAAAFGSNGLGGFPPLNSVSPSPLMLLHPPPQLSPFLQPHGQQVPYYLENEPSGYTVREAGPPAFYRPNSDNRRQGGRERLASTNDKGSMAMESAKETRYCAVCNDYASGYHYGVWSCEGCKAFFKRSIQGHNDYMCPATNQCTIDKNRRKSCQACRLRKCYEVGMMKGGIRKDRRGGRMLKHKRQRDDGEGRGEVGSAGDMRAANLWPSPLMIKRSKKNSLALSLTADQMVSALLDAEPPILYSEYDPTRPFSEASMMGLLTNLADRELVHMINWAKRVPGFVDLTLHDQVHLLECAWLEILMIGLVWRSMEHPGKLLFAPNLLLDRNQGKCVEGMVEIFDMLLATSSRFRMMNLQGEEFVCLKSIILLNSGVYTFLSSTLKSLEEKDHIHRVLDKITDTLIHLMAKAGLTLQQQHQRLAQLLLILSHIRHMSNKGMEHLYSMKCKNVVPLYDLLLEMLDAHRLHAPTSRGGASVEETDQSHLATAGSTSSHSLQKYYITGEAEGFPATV
UniProt P04150, sequence (P04150 whole entry, looked up): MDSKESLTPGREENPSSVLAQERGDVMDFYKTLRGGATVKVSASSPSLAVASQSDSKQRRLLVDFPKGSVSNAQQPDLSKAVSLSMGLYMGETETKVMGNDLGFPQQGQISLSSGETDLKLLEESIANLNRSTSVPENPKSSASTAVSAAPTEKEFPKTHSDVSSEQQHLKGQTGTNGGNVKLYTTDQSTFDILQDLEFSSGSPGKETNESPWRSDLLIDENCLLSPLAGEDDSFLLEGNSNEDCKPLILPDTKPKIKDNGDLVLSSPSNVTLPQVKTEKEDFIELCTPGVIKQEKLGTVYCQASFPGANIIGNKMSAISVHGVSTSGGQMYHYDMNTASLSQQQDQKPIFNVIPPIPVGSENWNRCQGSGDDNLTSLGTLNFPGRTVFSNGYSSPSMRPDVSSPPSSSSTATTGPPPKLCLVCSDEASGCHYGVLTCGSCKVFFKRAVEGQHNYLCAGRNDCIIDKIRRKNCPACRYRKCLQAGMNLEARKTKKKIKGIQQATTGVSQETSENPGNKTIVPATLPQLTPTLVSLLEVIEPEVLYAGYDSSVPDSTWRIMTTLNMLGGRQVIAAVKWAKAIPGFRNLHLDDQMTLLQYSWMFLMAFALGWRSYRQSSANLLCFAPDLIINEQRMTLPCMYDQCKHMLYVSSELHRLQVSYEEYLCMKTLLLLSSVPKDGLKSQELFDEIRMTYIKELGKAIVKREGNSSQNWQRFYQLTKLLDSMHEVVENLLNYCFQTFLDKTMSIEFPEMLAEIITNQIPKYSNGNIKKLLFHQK
UniProt Q03181, sequence (Q03181 whole entry, looked up): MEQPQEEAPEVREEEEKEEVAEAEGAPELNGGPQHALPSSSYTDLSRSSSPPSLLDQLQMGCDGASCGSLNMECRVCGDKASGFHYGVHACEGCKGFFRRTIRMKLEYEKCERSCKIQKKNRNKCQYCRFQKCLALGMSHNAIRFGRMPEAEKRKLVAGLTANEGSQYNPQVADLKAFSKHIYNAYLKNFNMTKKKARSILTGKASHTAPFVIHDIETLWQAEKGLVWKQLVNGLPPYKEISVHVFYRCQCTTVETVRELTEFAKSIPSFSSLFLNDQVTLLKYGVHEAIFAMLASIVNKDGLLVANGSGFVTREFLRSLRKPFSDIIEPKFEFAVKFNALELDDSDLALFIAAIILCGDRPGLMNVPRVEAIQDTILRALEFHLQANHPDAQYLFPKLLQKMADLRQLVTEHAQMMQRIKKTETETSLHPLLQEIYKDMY
UniProt Q9R1A7, sequence (Q9R1A7 whole entry, looked up): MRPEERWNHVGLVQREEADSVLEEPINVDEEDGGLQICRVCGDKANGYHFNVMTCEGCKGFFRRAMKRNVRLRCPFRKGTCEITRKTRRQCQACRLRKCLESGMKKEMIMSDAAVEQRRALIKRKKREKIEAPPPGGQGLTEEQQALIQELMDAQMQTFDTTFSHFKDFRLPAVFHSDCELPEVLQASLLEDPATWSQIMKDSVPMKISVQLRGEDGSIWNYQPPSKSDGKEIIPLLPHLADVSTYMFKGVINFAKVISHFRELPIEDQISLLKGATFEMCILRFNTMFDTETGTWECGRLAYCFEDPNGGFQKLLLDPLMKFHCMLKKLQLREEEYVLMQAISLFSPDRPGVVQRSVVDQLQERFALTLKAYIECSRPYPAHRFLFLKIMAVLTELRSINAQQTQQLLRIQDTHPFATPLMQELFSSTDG

CNC(=O)[C@H]1O[C@@H](n2cnc3c(NCc4cc(Cl)ccc4OCc4cc(C)no4)ncnc32)[C@H](O)[C@@H]1N
Potency [1]: inactive
Potency [2]: inactive
Potency [3]: inactive

Cn1cc(S(C)=O)c(=O)c2ccc(F)cc21 (centres undefined)
Potency [4]: inactive
Potency [5]: inconclusive [cytotoxic, full curve, poor fit]

CC(C)=CCCC(C)CCOC(=O)C(C)C (centres undefined)
Potency [2]: inactive

CC(O)COC(C)(C)C (centres undefined)
Potency [6]: inactive
Potency [5]: inactive
Potency [2]: inactive

O=C(OOC(=O)c1ccccc1)c1ccccc1
Potency [2]: inconclusive [cytotoxic, single point]
Potency [7]: inactive

CCCCS
Potency [8]: inactive

C[Si](C)(C)N[Si](C)(C)C
Potency [9]: active: 0.0864 µM [inconclusive]

CCN(CC)S(=O)(=O)c1ccc(C(=O)O)cc1
Potency [2]: inconclusive [rising, single point]

O=C(Cn1ccnc1[N+](=O)[O-])NCc1ccccc1
Potency [2]: inactive

O=C1NC(c2ccccc2)(c2ccccc2)C(=O)N1COP(=O)(O)O
Potency [2]: inactive

CC(C)(CCC(=O)O)C(=O)O
Potency [3]: inactive

O=C(O)CCCCCCCCC(=O)O
Potency [4]: inactive
Potency [6]: inactive
activity, negative = inhibition [10]: inconclusive: -19.9%

CC(=O)OCC(=O)[C@@]1(O)CCC2C3CCC4=CC(=O)CC[C@]4(C)C3[C@@H](O)C[C@@]21C (some centres undefined)
Potency [11]: active: 0.134 µM

O=P(O)(O)OP(=O)(O)O
Potency [11]: inconclusive [rising, partial curve]
Potency [12]: inactive

CCOc1ccccc1OCCN[C@H](C)Cc1ccc(OC)c(S(N)(=O)=O)c1
Potency [5]: inactive

C[C@H](O)C(=O)Nc1c(I)c(C(=O)NC(CO)CO)c(I)c(C(=O)NC(CO)CO)c1I
Potency [13]: inconclusive [activator, single point]

Cc1cc(N)no1
activity, negative = inhibition [10]: inconclusive: 4.66%

C[C@H](N)[C@H](O)c1cccc(O)c1
Potency [14]: inconclusive [rising, single point]
Potency [8]: inactive
Potency [12]: inactive
